SMILES strings stand for the structures. The whole screen tested about 310,000 compounds, of which about 2,200 (0.71%) showed an effect of 50% or more. Effects have a minus sign here. Some of the results follow.

For this assay, the target named is human ether-à-go-go-related gene (hERG) potassium channel (human, UniProt Q12809). The experiment in a line: primary screen, population patch clamp on CHO cells stably expressing hERG.
Sequence of human ether-à-go-go-related gene (hERG) potassium channel (Q12809 whole entry, looked up): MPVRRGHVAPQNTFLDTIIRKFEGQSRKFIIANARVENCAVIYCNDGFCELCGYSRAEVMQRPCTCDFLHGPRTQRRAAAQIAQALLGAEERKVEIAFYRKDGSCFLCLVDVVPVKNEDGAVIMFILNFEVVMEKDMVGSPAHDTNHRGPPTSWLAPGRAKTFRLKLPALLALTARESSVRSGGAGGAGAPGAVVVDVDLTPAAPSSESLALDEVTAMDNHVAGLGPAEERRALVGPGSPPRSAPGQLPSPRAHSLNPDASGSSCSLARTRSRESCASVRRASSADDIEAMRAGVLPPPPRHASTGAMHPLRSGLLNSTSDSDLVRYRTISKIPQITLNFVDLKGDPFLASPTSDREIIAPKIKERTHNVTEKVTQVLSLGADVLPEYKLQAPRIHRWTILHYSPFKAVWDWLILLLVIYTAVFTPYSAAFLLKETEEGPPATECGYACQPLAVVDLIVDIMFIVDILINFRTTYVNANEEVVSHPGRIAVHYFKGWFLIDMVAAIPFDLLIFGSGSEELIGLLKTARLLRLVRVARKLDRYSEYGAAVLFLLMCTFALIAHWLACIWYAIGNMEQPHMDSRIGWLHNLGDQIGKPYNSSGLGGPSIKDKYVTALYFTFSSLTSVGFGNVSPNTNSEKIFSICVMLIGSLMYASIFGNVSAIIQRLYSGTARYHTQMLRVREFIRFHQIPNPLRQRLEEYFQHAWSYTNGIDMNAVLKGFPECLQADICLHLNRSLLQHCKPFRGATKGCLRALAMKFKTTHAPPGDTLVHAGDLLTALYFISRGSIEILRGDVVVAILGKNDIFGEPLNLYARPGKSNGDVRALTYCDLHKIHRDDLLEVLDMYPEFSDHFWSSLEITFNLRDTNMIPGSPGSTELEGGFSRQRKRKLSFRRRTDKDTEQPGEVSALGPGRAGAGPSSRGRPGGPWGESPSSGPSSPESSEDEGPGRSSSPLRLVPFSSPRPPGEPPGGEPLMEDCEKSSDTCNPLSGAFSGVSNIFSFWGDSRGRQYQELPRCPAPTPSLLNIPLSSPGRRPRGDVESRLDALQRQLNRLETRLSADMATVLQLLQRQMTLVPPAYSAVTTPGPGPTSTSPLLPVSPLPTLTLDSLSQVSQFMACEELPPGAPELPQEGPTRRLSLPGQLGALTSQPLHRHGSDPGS
`Cc1cc2cc(CN(CCCO)S(=O)(=O)c3cccc4nsnc34)c(=O)[nH]c2cc1C`: the “hERG current change (%, negative = inhibition) at 1uM” value was -0.0306%.

On to `COc1ccc(NC(=O)c2ccc(C)cc2)c(OC)c1`, for which the “hERG current change (%, negative = inhibition) at 1uM” value is reported as -2.85%.

Consider `CCOC(=O)c1c(C)nc2sc3c(=O)n(-c4ccc(C)cc4)cnc3c2c1-c1ccc(OC)cc1`, for which the “hERG current change (%, negative = inhibition) at 1uM” value is given as 13%.

For `COc1ccc2oc(C)c(C(=O)c3ccc([N+](=O)[O-])cc3)c2c1`, the “hERG current change (%, negative = inhibition) at 1uM” value is on record as 11.1%.

With `CCN(CC)c1ccc(/C=N/N2CCN(c3ccccn3)CC2)cc1`, the “hERG current change (%, negative = inhibition) at 1uM” value is 22.6%.

Take `CCN(CC)C(=O)Cn1cc(C(=O)C(=O)NCCc2ccccc2)c2ccccc21`: the “hERG current change (%, negative = inhibition) at 1uM” value is 9.27%.

On to `COCc1cc(C)n(CC(=O)NC(C)c2ccccc2)c(=O)c1C#N` (stereo not shown), for which the “hERG current change (%, negative = inhibition) at 1uM” value is 7.54%.

Consider `COc1ccc(N2C(=O)C(O)C2c2ccc(C)cc2)cc1` (stereo not shown), for which the “hERG current change (%, negative = inhibition) at 1uM” value was 10.6%.

With `Cc1ccc(-n2nc(C)cc2NC(=O)COc2cc(C)cc3oc(=O)c4c(c23)CCC4)cc1`, the “hERG current change (%, negative = inhibition) at 1uM” value is on record as 10.1%.

Turning to `O=C(NNS(=O)(=O)c1ccccc1)c1cccc([N+](=O)[O-])c1`, the “hERG current change (%, negative = inhibition) at 1uM” value was 9.02%.

In the case of `CN1CCN(C(=O)CSc2nc(-c3cccs3)ccc2C#N)CC1`, the “hERG current change (%, negative = inhibition) at 1uM” value is on record as 11.3%.

As to `Brc1ccccc1Cn1cnc2ccccc21`, the “hERG current change (%, negative = inhibition) at 1uM” value is recorded as 7.52%.

On to `O=C(N/N=C/c1ccc(-c2cccc([N+](=O)[O-])c2)o1)[C@H]1C[C@@H]1c1ccccc1`, for which the “hERG current change (%, negative = inhibition) at 1uM” value is 3.49%.

As for `COc1ccc(C(=O)C(CN2CCCC2)c2ccccc2)cc1` (stereo not shown), the “hERG current change (%, negative = inhibition) at 1uM” value is -2.36%.

For `COCCn1c(N2CCN(c3ccccc3)CC2)nc2c1c(=O)n(C)c(=O)n2C`, the “hERG current change (%, negative = inhibition) at 1uM” value was 3.47%.

In the case of `CCOc1ccc(NC2C=CS(=O)(=O)C2)cc1` (stereo not shown), the “hERG current change (%, negative = inhibition) at 1uM” value was 6.09%.

As for `COc1nc(N(C)S(=O)(=O)c2ccc(C)cc2)nc(C)c1Br`, the “hERG current change (%, negative = inhibition) at 1uM” value is 16.5%.

On to `NC1=NC(=O)/C(=C\c2cccs2)S1`, for which the “hERG current change (%, negative = inhibition) at 1uM” value was 8.84%.

Consider `COc1ccccc1NC(=O)Cn1cnc2c1c(=O)n(C)c(=O)n2C`, for which the “hERG current change (%, negative = inhibition) at 1uM” value worked out at 19.5%.

For `O=C(/C=C/c1cccc(F)c1)N1CCN(c2ccccn2)CC1`, the “hERG current change (%, negative = inhibition) at 1uM” value is -68.4%.

As for `CC1CCCC(NC(=O)c2cccc(N3CCCC3=O)c2)C1C` (stereo not shown), the “hERG current change (%, negative = inhibition) at 1uM” value stood at 9.61%.

Consider `CN(Cc1ccccc1)C(=O)COC(=O)C1CCN(S(=O)(=O)c2cccs2)CC1`, for which the “hERG current change (%, negative = inhibition) at 1uM” value was determined as 7.57%.

For `CCCCn1c(=O)c(CC(C)=O)nc2ccccc21`, the “hERG current change (%, negative = inhibition) at 1uM” value was found to be 15.9%.

For `CCCC(c1nnnn1Cc1ccc(F)cc1)N1CCN(CC)CC1` (stereo not shown), the “hERG current change (%, negative = inhibition) at 1uM” value is on record as -19.3%.

As to `CCOc1ccc(C(=O)NCC(=O)OCc2ccc(F)cc2Cl)cc1`, the “hERG current change (%, negative = inhibition) at 1uM” value came out at 2.89%.

Turning to `O=C(NCCN1CCCCC1)Nc1cccc(F)c1`, the “hERG current change (%, negative = inhibition) at 1uM” value is 4.49%.

As to `COc1ccc(CC(=O)N(Cc2ccccc2)C(C)C)cc1`, the “hERG current change (%, negative = inhibition) at 1uM” value is listed as 4.46%.

Consider `Cc1ccc(OCC(=O)Nc2ccc(Cl)cc2)c(-n2nc3ccccc3n2)c1`, for which the “hERG current change (%, negative = inhibition) at 1uM” value was determined as 6.01%.

On to `O=C(NNC(=O)C1CCCC1)c1cc([N+](=O)[O-])cc([N+](=O)[O-])c1`, for which the “hERG current change (%, negative = inhibition) at 1uM” value stood at 16.3%.

In the case of `C[N+]1(CC(=O)OCCCC2CCCCC2)CCCC1.[I-]`, the “hERG current change (%, negative = inhibition) at 1uM” value is given as 12.7%.

Turning to `COc1ccc(C(O)(CC(C)C)C(CN2CCOCC2)c2ccccc2)cc1.Cl` (stereo not shown), the “hERG current change (%, negative = inhibition) at 1uM” value was 14.3%.

For the compound `COc1ccc(CCN(Cc2ccc(C(C)C)cc2)S(=O)(=O)c2ccc(S(=O)(=O)N(C)C)cc2)cc1OC`, the “hERG current change (%, negative = inhibition) at 1uM” value amounted to 0.398%.

`COC(=O)NC(NC(=S)Nc1ccccc1OC)C(Cl)(Cl)Cl` (stereo not shown): the “hERG current change (%, negative = inhibition) at 1uM” value is reported as 1.75%.

For `Cc1ccccc1Nc1nc(-c2sc(NC(=O)c3ccc([N+](=O)[O-])cc3)nc2C)cs1`, the “hERG current change (%, negative = inhibition) at 1uM” value is 13.9%.

In the case of `CCCCOC(=O)Nc1cccc(Cl)c1C`, the “hERG current change (%, negative = inhibition) at 1uM” value was -0.362%.

Take `CCOC(=O)Cc1csc(NC(=O)c2ccc3ncsc3c2)n1`: the “hERG current change (%, negative = inhibition) at 1uM” value turned out to be 2.59%.

Take `O=C(Nc1cccc(F)c1)NC1CCN(Cc2ccccc2)CC1`: the “hERG current change (%, negative = inhibition) at 1uM” value was -7.63%.

Regarding `O=c1/c(=C/c2ccccn2)sc2n1CN(c1ccccc1)CN=2`, the “hERG current change (%, negative = inhibition) at 1uM” value is 9.51%.

Turning to `Cn1c(-c2ccc3c(c2)OCO3)cnc1NCc1cccc(O)c1.O=C(O)C(=O)O`, the “hERG current change (%, negative = inhibition) at 1uM” value is listed as 1.05%.

Take `CC(C)c1cccc(C(C)C)c1NC(=O)c1ccc(OCC(=O)NCc2ccccc2)cc1`: the “hERG current change (%, negative = inhibition) at 1uM” value was -0.595%.

Consider `CCN1CCn2c3c(c4cc(C)ccc42)CCCC31` (stereo not shown), for which the “hERG current change (%, negative = inhibition) at 1uM” value is on record as -11.6%.

Take `CC1CN(C(=O)COC(=O)c2ccc(Cl)c(N)c2)CC(C)O1` (stereo not shown): the “hERG current change (%, negative = inhibition) at 1uM” value is given as 6.96%.

With `COc1ccc(CNC(=O)C2CCN(S(=O)(=O)c3cccnc3)CC2)cc1`, the “hERG current change (%, negative = inhibition) at 1uM” value came out at 25.1%.

The values above are taken from article PMC4336329 (PLoS ONE, 2015).
